Results: patent US20210269496A1 (PANDION OPERATIONS, published 2021)

Molecular target: T1, CD25 (Homo sapiens (Human), UniProt P01589 22-240)
T1 construct: also called IL-2R alpha chain
T1 sequence: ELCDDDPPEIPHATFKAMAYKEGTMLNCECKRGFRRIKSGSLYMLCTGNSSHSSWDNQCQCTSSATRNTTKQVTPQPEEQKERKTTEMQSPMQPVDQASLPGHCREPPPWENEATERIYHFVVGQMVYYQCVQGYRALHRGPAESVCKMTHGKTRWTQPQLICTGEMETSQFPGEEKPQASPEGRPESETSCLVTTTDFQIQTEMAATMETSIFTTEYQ
Assay: ELISA, CD25 coated at 0.5 µg/mL, detection with biotinylated anti-IL-2 polyclonal
Protocol: An immunosorbent plate was coated with CD25 at a concentration of 0.5 μg/mL in PBS pH 7.4, 75 μL/well, and incubated overnight at 4° C. Wells were washed with PBS pH 7.4 containing 0.05% Tween-20 (wash buffer) three times, and then blocked with 200 μL/well 1% BSA in PBS pH 7.4 (block buffer) for two hours at room temperature. After three washes with wash buffer IL-2 muteins SEQ ID NO: 53, SEQ ID NO: 54, SEQ ID NO: 55, SEQ ID NO: 56 were diluted to eleven-two fold serial dilution in PBS containing 1% BSA and 0.05% Tween-20 (assay buffer) with 2 nM being the highest concentration. The diluted material was added to the CD25 coated plate at 75 μL/well for 1 hour at room temperature. After three washes with wash buffer, a goat biotinylated anti-IL-2 polyclonal antibody, diluted to 0.05 μg/mL in assay buffer, was added to the plate at 75 μL/well for 1 hour at room temperature. After three washes with wash buffer high sensitivity streptavidin HRP diluted in assay buffer at 1:5000 was added to the plate at 75 μL/well for 15 minutes at room temperature. After three washes with wash buffer and 1 wash with wash buffer (with no Tween-20), the assay was developed with TMB, and stopped with 1N HCL. OD 450 nm was measured. The experiment included appropriate controls for non-specific binding of the molecules to the plate/block in the absence of CD25. […]

B1: human IL-2 mutein polypeptide fused C-terminally to human IgG1 Fc domain (SEQ ID NO: 58) (Fc fusion)
chain: [in this place human IgG1 Fc with changes]GGGSAPTSSSTKKTQLQLEHLLLDLQMILNGINNYKNPKLTRMLTFKFYMPKKATELKHLQCLEEELKPLEEALNLAPSKNFHLRPRDLISDINVIVLELKGSETTFMCEYADETATIVEFLNRWITFAQSIISTLT
notes: also called FC-G4S-IL-2 N88D V69A, Q74P
EC50: < 1 nM
